{
  "source": "PubChem BioAssay AID2546",
  "about": "(National Center for Advancing Translational Sciences (NCATS), 2010)",
  "note": "Among all 310,000 compounds or so, about 11,000 (3.5%) were called active. Inconclusive results, whose numbers are uncertain, are shown with a selection of clear calls. Calls follow the shape of the dose curve; as a rule, active = well fitted inhibition curve with a large enough effect; inconclusive = small, poorly fitted or top-dose-only effect, or effect the other way; inactive = flat fitted curve, though single readings scatter. No potency is given beside an inconclusive call; the fits are too rough. % is scaled to controls: 0 for no effect and ±100 for the full control effect; potency is read from the fitted curve at half-maximal effect; tags tell the direction and shape of the fitted curve.",
  "data": [
    {"experiment": "VP16 counterscreen qHTS for inhibitors of ROR gamma transcriptional activity;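 also: Gal4-VP16 expression switched on by copper sulfate through the metallothionein promoter; nearly all actives have a fitted effect of over 50% in size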", "conditions": "Drosophila S2 Gal4-VP16 UAS-luciferase, luminescence, 20 h; activity, negative = inhibition: at 53.6 µM (top of the series)", "values": [
      {"compound": "O=S(=O)(NCc1ccc(Cl)cc1)c1ccc(Cl)nc1", "activity, negative = inhibition": "inactive: -4.14%"},
      {"compound": "Cc1ccc(CN=Cc2[nH]c3ccc(Br)c(Cl)c3c2O)cc1", "Potency": "inconclusive [inhibitor, single point]"},
      {"compound": "CC(=O)N1N=C(c2ccc(Cl)cc2)OC1c1ccc(C(C)C)cc1", "note": "(stereo not given)", "Potency": "inconclusive [inhibitor, single point]"},
      {"compound": "CC(=O)N1CCc2ccc(S(=O)(=O)N3CC(C)OC(C)C3)cc21", "note": "(stereo not given)", "Potency": "inconclusive [activator, single point]"},
      {"compound": "CN(C)c1ccc(C(=S)NCc2ccco2)cc1", "Potency": "active: 7.94 µM"},
      {"compound": "Cc1nc([N+](=O)[O-])c(Br)n1CC(=O)c1ccc(Br)cc1", "Potency": "inconclusive [inhibitor, single point]"},
      {"compound": "O=C(COc1ccccc1)NNc1nc2ccccc2s1", "Potency": "active: 11.2 µM"},
      {"compound": "CC1CCN(Cc2c(C(=O)N/N=C/c3cc(Br)ccc3O)nnn2-c2nonc2N)CC1", "Potency": "active: 7.08 µM"},
      {"compound": "Cc1cccc(C(=O)NC(=S)NCc2cccnc2)c1", "Potency": "inconclusive [inhibitor, single point]"},
      {"compound": "CC(C)C(NC(=O)CSc1ccc(Cl)cc1)C(C)C", "activity, negative = inhibition": "inactive: -2.25%"},
      {"compound": "C=CCc1c(C)nc(SC)nc1Nc1ccc(C(C)=O)cc1", "activity, negative = inhibition": "inactive: 10.3%"},
      {"compound": "Cc1ccc(C)c(Cn2nnc3c(=O)[nH]c(C4CCN(C(=O)c5cccs5)CC4)nc32)c1", "Potency": "inconclusive [inhibitor, single point]"},
      {"compound": "CC(CCc1ccccc1)NC(=O)CN1CCN(c2ccccc2)CC1", "note": "(stereo not given)", "activity, negative = inhibition": "inactive: 9.74%"},
      {"compound": "COc1ccc2nc(-c3ccccc3)cc(OC)c2c1", "Potency": "inconclusive [activator, partial curve]"},
      {"compound": "CCOC(=O)Cn1c(=O)oc2cc(S(=O)(=O)N3CCc4ccccc43)ccc21", "activity, negative = inhibition": "inactive: -2.16%"},
      {"compound": "COc1ccc(NC(=O)CSc2ccc(NC(C)=O)cc2)cc1S(=O)(=O)N1CCCCC1", "activity, negative = inhibition": "inactive: 23.9%"},
      {"compound": "O=c1c2cc(N3CCOCC3)ccc2[nH]c(=S)n1CCc1ccccc1", "Potency": "active: 3.16 µM"},
      {"compound": "CC(=O)NC(=S)Nc1ccccc1N1CCN(C(=O)c2ccccc2)CC1", "Potency": "active: 5.01 µM"},
      {"compound": "CN1CCN(C(=O)c2cc(COc3c(F)cccc3F)on2)CC1c1ccccc1", "note": "(stereo not given)", "Potency": "active: 7.08 µM"},
      {"compound": "CO/N=C/c1ccc(N2CCN(C(=O)c3cccc(C(F)(F)F)c3)CC2)c([N+](=O)[O-])c1", "Potency": "inconclusive [inhibitor, single point]"},
      {"compound": "C/C(=N\\NC(=O)c1cc(-c2cccnc2)nc2ccccc12)c1ccc(O)cc1O", "Potency": "active: 0.562 µM"},
      {"compound": "Nc1nc2c(F)c(F)c(F)cc2s1", "activity, negative = inhibition": "inactive: -5.44%"},
      {"compound": "COC(=O)Oc1ccc(/C=N/NC(=O)CSCc2ccc(Cl)cc2)cc1OC", "Potency": "active: 15.8 µM"},
      {"compound": "COc1cc(/C=N\\Nc2nc3ccccc3o2)cc(OC)c1OC", "Potency": "inconclusive [inhibitor, single point]"},
      {"compound": "COc1cnc(-c2ccccn2)nc1Sc1ccc(F)cc1", "Potency": "active: 3.55 µM"},
      {"compound": "Cc1ccc(NC(=S)N2CCN(S(=O)(=O)c3ccccc3)CC2)cc1C", "Potency": "inconclusive [inhibitor, single point]"},
      {"compound": "CCOc1ccc(NC(=S)Nc2ccc(OC)cc2)cc1", "Potency": "inconclusive [inhibitor, single point]"},
      {"compound": "C/C(=N\\Nc1cc(N2CCCCC2)nc(C)n1)c1ccc(Br)cc1", "Potency": "active: 6.31 µM"},
      {"compound": "CCSc1nnc(NC(=O)c2nc(-c3ccccc3)n(-c3ccccc3)n2)s1", "Potency": "inconclusive [inhibitor, single point]"},
      {"compound": "c1csc(-c2nc(N3CCCCC3)no2)c1", "Potency": "inconclusive [activator, full curve]"},
      {"compound": "O=C1OC(c2ccc(F)cc2)=C/C1=C\\c1ccc(O)cc1", "Potency": "inconclusive [inhibitor, partial curve]"},
      {"compound": "Cc1ccc(Cl)cc1N1CCN(C(=O)Cc2csc(Nc3nc(=S)[nH]c4ccccc34)n2)CC1", "Potency": "active: 3.55 µM"},
      {"compound": "Cc1c(C(=O)N(C)C)sc(NC(=O)c2cccc([N+](=O)[O-])c2)c1C#N", "Potency": "inconclusive [inhibitor, single point]"},
      {"compound": "Cc1cccc(N2C(S)=C(C#N)C(=O)NC23CCCCC3)c1", "Potency": "inconclusive [inhibitor, single point]"},
      {"compound": "CC1=Nc2cc(C(=O)NCCCN3CCN(C)CC3)ccc2Sc2ccc(C)cc21", "activity, negative = inhibition": "inactive: -2.17%"},
      {"compound": "Cc1ccc(COc2ccccc2C(=S)N2CCCC2)cc1", "Potency": "inconclusive [inhibitor, single point]"},
      {"compound": "Cc1ccc(NCC(=O)NNC2=NCCC2)c(C)c1", "Potency": "active: 11.2 µM"},
      {"compound": "COc1cccc(-n2nnnc2SCC(=O)NC2CCCC2)c1", "Potency": "inconclusive [activator, single point]"},
      {"compound": "C=CCNC(=S)N/N=C1\\CCS(=O)(=O)c2ccccc21", "Potency": "inconclusive [inhibitor, partial curve]"},
      {"compound": "COc1ccc(C2CCCN2C(=S)Nc2cccc(C)c2)cc1OC", "note": "(stereo not given)", "activity, negative = inhibition": "inactive: -13.8%"},
      {"compound": "CN(C(=O)COc1ccccc1C(=O)NCCOc1ccccc1)c1ccccc1", "Potency": "active: 7.94 µM"},
      {"compound": "CCOC(=O)c1sc(NC(=O)CSc2nc3ccccc3o2)c(C(=O)OCC)c1C", "Potency": "active: 2 µM"},
      {"compound": "CCOc1ccc(S(=O)(=O)Nc2cccc(N(C)S(C)(=O)=O)c2)cc1", "activity, negative = inhibition": "inactive: -24.3%"},
      {"compound": "Cc1cccc(-c2cc3c(nn2)-c2ccccc2C3=O)c1", "Potency": "inconclusive [inhibitor, partial curve]"},
      {"compound": "CC[C@](N)(CCC(=O)O)C(=O)O", "Potency": "inconclusive [inhibitor, full curve]"},
      {"compound": "CCCCCCSC1=C(C#N)C(c2ccc(O)cc2)CC(=O)N1", "note": "(stereo not given)", "activity, negative = inhibition": "inactive: 22.1%"},
      {"compound": "CCSc1nnc(NC(=O)C(C)(C(F)(F)F)C(F)(F)F)s1", "Potency": "inconclusive [inhibitor, single point]"},
      {"compound": "CN(C)CCNC(=O)c1c(CSc2ccccc2)noc1C(=O)NCc1ccccc1", "activity, negative = inhibition": "inactive: 20.6%"},
      {"compound": "COc1cccc(NC(=S)Nc2cc(C)cc(C)n2)c1", "Potency": "inconclusive [inhibitor, partial curve]"},
      {"compound": "CCc1cc(=O)oc2cc(C)cc(OC(C)C(=O)NCCN3CCOCC3)c12", "note": "(stereo not given)", "activity, negative = inhibition": "inactive: 1.56%"},
      {"compound": "Cc1csc(NC(=O)c2cnc3ccccc3n2)n1", "Potency": "inconclusive [inhibitor, single point]"},
      {"compound": "COc1ccc(-c2cnc(SCC(=O)Nc3ccc4c(c3)OCO4)n2Cc2ccco2)cc1", "activity, negative = inhibition": "inactive: -2.03%"},
      {"compound": "O=c1c2c(nc3n1CCCCC3)sc1c(O)cccc12", "Potency": "inconclusive [inhibitor, single point]"},
      {"compound": "Cc1cc(C)c(NS(=O)(=O)c2ccc(NC(=O)c3cccs3)cc2)c(C)c1", "Potency": "inconclusive [activator, single point]"},
      {"compound": "COc1cc(OC)cc(-c2cc3nc(C)c(CCC(=O)O)c(C)n3n2)c1", "Potency": "active: 2.82 µM"},
      {"compound": "CCn1cc(C(=O)OCC(=O)c2cc(C)n(-c3cccc(C(F)(F)F)c3)c2C)c(=O)c2ccc(C)nc21", "Potency": "inconclusive [inhibitor, partial curve, poor fit]"},
      {"compound": "COc1ccc(CNCc2cc3c(C(C)(C)C)nn(-c4ccccc4)c3[nH]c2=O)cc1", "Potency": "inconclusive [inhibitor, single point]"},
      {"compound": "CN1/C(=C\\C(=O)CSc2cccc[n+]2[O-])C(C)(C)c2ccccc21", "Potency": "inconclusive [inhibitor, single point]"},
      {"compound": "CCC(C)C(N)C(=O)NC(CC(N)=O)C(=O)NC(CC(C)C)C(=O)NC(CCCCN)C(=O)NC(C)C(=O)NC(CC(C)C)C(=O)NC(C)C(=O)NC(C)C(=O)NC(CC(C)C)C(=O)NC(C)C(=O)NC(CCCCN)C(=O)NC(CCCCN)C(=O)NC(C(=O)NC(CC(C)C)C(N)=O)C(C)CC", "note": "(stereo not given)", "Potency": "active: 17.8 µM"},
      {"compound": "Cc1cccc(-n2ncc3c(N(CCO)CCO)ncnc32)c1", "Potency": "inconclusive [activator, single point]"},
      {"compound": "C=CCn1c(=O)[nH]c2cc(C(=O)N3CCN(c4cccc(Cl)c4)CC3)ccc2c1=O", "Potency": "inconclusive [inhibitor, single point]"},
      {"compound": "O=C(Nc1nnc(SCc2cccc3ccccc23)s1)C1COc2ccccc2O1", "note": "(stereo not given)", "Potency": "inconclusive [inhibitor, single point]"},
      {"compound": "O=C(NC(=S)Nc1ccccc1O)c1ccccc1Cl", "Potency": "inconclusive [inhibitor, single point]"},
      {"compound": "COc1ccc(-c2csc(N(CCCN3CCOCC3)C(=O)c3ccco3)n2)cc1", "activity, negative = inhibition": "inactive: -11%"},
      {"compound": "Cc1ccccc1N(CC(=O)N/N=C/c1cc(Br)c(C)o1)S(C)(=O)=O", "Potency": "inconclusive [activator, single point]"},
      {"compound": "COc1ccc(C(=O)C(CN2CCCC2)c2ccccc2)cc1", "note": "(stereo not given)", "Potency": "inconclusive [inhibitor, single point]"},
      {"compound": "COC(=O)c1sccc1NC(=O)Nc1cc(C)cc(C)c1", "Potency": "inconclusive [activator, full curve]"},
      {"compound": "COc1ccccc1/C=C\\C=N\\n1c(-c2ccc(Cl)cc2Cl)n[nH]c1=S", "Potency": "active: 10 µM"},
      {"compound": "CCOCCn1c(=O)c2c(nc3n2CC(C)CN3Cc2ccccc2)n(C)c1=O", "note": "(stereo not given)", "activity, negative = inhibition": "inactive: 4.4%"},
      {"compound": "COc1ccc(/C=C2\\CCC/C(=C\\c3ccc(OC)c(OC)c3OC)C2=O)c(OC)c1OC", "activity, negative = inhibition": "inactive: 0.266%"},
      {"compound": "O=C(CCl)Nc1ccccc1C(=O)Nc1ccc2c(c1)OCO2", "Potency": "inconclusive [inhibitor, single point]"},
      {"compound": "COc1ccc(C(=O)/C=C/c2ccc(O)cc2)c(O)c1CC=C(C)C", "Potency": "active: 7.94 µM"},
      {"compound": "COc1ccc(NC(=O)C(c2ccccn2)N(C(C)=O)c2ccc(C)cc2)cc1", "note": "(stereo not given)", "activity, negative = inhibition": "inactive: -11.3%"},
      {"compound": "Cc1[nH]nc2c1C(C(C)C)C(C#N)=C(N)O2", "note": "(stereo not given)", "activity, negative = inhibition": "inactive: -1.53%"},
      {"compound": "Cc1cccc(C)c1-n1c(C)cc(/C=N/NC(N)=S)c1C", "Potency": "active: 0.794 µM"}
    ]}
  ]
}
